Reference: the RNAGym collection of RNA variant scans (doi:10.1073/pnas.2313332121)
This sample is rich in variants without activity.

B1: TPR 5TU (parent)
chain: GGAUCUUCUCGAUCUAACAAAAAAGACAAAUCUGCCACAAAGCUUGAGAGCAUCUUCGGAUGCAGAGGCGGCAGCCUUCGGUGGCGCGAUAGCGCCAACGUUCUCAACUAUGACACGCAAAACGCGUGCUCCGUUGAAUGGAGUUUAUCAUG

Variants of: B1
Test: polymerase ribozyme fitness, log enrichment relative to wild type (log ratio); higher = more active; in vitro selection for triplet polymerase activity
Method in brief: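 To select mutant libraries of each subunit of a heterodimeric triplet polymerase ribozyme, built by PCR and transcribed, each was annealed with a biotinylated primer, partner subunit and triplets, then incubated frozen at −7 °C. Extended constructs were gel-excised, captured on streptavidin beads and amplified by RT-PCR, in one round carried out in triplicate. Illumina sequencing of input and output libraries kept genotypes with ≥10 input reads and ≥1 read per output. Fitness is the base-2 logarithm of genotype enrichment relative to wild-type enrichment, from inverse-variance-weighted replicate averages.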

Variant | polymerase ribozyme fitness (log ratio)
A29U C38U U44G A60C C95U U102G U148A | ≤ -4.2
C27G U53G U55A C72U A73C G84U U139A U151G | ≤ -4.2
C27G C87U C105U C131A | ≤ -4.2
A29U G59C C85A C103U U134A A138C | ≤ -4.2
C27G G48C A66G | ≤ -4.2
A28G C57U A121U | ≤ -4.2
C27G A47G A52U C75G C76A U82C A107C G141U | ≤ -4.2
A29G C43A G50C U82A A91C C125U | ≤ -4.2
A28U G124A A142C U148G | ≤ -4.2
C27U A30C U55G U82G G133C G141C U146A | ≤ -4.2
A30U A40U G59C U61G G124C | ≤ -4.2
A29G A41C C76G | ≤ -4.2
A29G U55A U144G | ≤ -4.2
A28G A47G U56C C79A U102C C103A U109G C114U G128A | ≤ -4.2
A28C G50U C85G C118A U145G | ≤ -4.2
A30C C85A A89U | ≤ -4.2
A28C A47C C72U C87G G117U A138C A142U | ≤ -4.2
A29U A40G A49C C57U U77G G83C U111A A115G | ≤ -4.2
A28G G34C | ≤ -4.2
A29C U53A A66U C85G A107U | ≤ -4.2
C27G G84U C114U C125G G143A | ≤ -4.2
A29C C96G G133C | ≤ -4.2
A28C U45A A64U A66C G81A C85G C114A | ≤ -4.2
A29U U77G C114A | ≤ -4.2

Variant | polymerase ribozyme fitness (log ratio)
A29C U56C A91U G100A | ≤ -4.2
A28G C54U A73G G80A U144A U145C | ≤ -4.2
A29U A40U C76G G86A G140A U145C | ≤ -4.2
A29G A52G C85G G94C | ≤ -4.2
A30G A52G C87U A91G | ≤ -4.2
A29U C51G C95U C103G | ≤ -4.2
A28U C35U C85A G143U | ≤ -4.2
A29U G62C G86A C96G | ≤ -4.2
A30U A39G U53A C95G | ≤ -4.2
A29G U45G G58A C76G C87U C99A U139C G140U | ≤ -4.2
A30G C38A G84A A137G | ≤ -4.2
A30C U44C G58C C79G G86A G143A U151A | ≤ -4.2
A30G A39G C72G C116A A138C G141C | ≤ -4.2
C27U C43U G48U A89G G136C | ≤ -4.2
A29U G58A C93U U127C | ≤ -4.2
C27U U55A G58C G59A C87U C99G U134A G136U U145C | ≤ -4.2
A29C C36A A49G C51U C57A G124A | ≤ -4.2
C27G U56A C57G G84A A122U U151C | ≤ -4.2
A28U A29G C57U G88U A138U U145C | ≤ -4.2
A28C A49G A97U | ≤ -4.2
A28U C85U C103A G128A | ≤ -4.2
A29C U53A U55A U56A A73G C96A C118A G126A G141A | ≤ -4.2
A28C G48A G50U C87U A113U U134G A142U U144A | ≤ -4.2
C27U A49U C72U A89G A150C | ≤ -4.2

Variant | polymerase ribozyme fitness (log ratio)
A28G G50A G88C C132U | ≤ -4.2
A30G G50U G140C | ≤ -4.2
C27G G50C C57U G58C C93U | ≤ -4.2
A29U A47C A91G C99U C108A G117A | ≤ -4.2
A29U C85A C96U | ≤ -4.2
A29C C36A U55A U61G C87A A121U | ≤ -4.2
A29C G71C A106C A110C | ≤ -4.2
A30C G50C C72A G83U A98U A110U C116G | ≤ -4.2
A29U C32U A89C G100C A106G | ≤ -4.2
A29G A41C G42A C51G C54U G59C G83A G92U A150C | ≤ -4.2
A30C U82G C87A A89G | ≤ -4.2
A29G U56G G68A U90C A98U A106G C114A U127A G152U | ≤ -4.2
C27U A30G A52U C114U C129G G133U A142U | ≤ -4.2
A28C A29U A52G G83U C123A | ≤ -4.2
C27G C85G A89C | ≤ -4.2
A28C U78C U102G | ≤ -4.2
A28C G50U G92A C95A | ≤ -4.2
A28U A30C A40C A41C G59C G80C G94A C95G G100A A137G | ≤ -4.2
A29U A37U G46C C85G G117C | ≤ -4.2
A28C C35G G62C C116G | ≤ -4.2
A29C U53G A60U G80A C87G A119G C125A C132G | ≤ -4.2
A30C A91G C93A | ≤ -4.2
A28U G83C U134G | ≤ -4.2
A30C A66C C87A U127A | ≤ -4.2

Variant | polymerase ribozyme fitness (log ratio)
A30G U45G G46C G67U U90G U135G | ≤ -4.2
A30C G34U C43A G80C G83A A91G A137G | ≤ -4.2
C27U A29U C76A C95U U109A A120U U146G | ≤ -4.2
A29C C57U C79U C87A C129U | ≤ -4.2
A28U A41C G67U U78A G88A C96G A107U G117C G143A | ≤ -4.2
A30G A73U G84U U111G G133U G141A | ≤ -4.2
C27G U55G U56A C95U U109G C125A U127C G136C | ≤ -4.2
A29U A73G C95U A142G G152U | ≤ -4.2
A29U A52C C114G | ≤ -4.2
A29U G94C C95U U135A | ≤ -4.2
C27U A37U C54G U145G | ≤ -4.2
C27U A28U A39C G80C G133U | ≤ -4.2
C27U C32G A41C A97G U139A | ≤ -4.2
C27A U55A C85U U101G A137G U139C | ≤ -4.2
A29G A49C C75A C85A C125A U135G A147G U148G | ≤ -4.2
C27U A60U G62C G92C C99G G133A U135C | ≤ -4.2
C27G U45A A91C C93A G128A | ≤ -4.2
C27G A30C C69U | ≤ -4.2
C27G U55A C69U C93U | ≤ -4.2
A28G C57A C85U A98G A137U | ≤ -4.2
A29U A60G U90G U145G | ≤ -4.2
A29C G80A C85G U148A | ≤ -4.2
A28C G81C C87U G126U G143U | ≤ -4.2
A28C C116A A138C | ≤ -4.2

Variant | polymerase ribozyme fitness (log ratio)
A28G C75A G81C G92U C114A A115U G128A | ≤ -4.2
A29U U53C G88U G143A U145G U151G | ≤ -4.2
A28U A29G G48A G65U U90C C116G A137C | ≤ -4.2
A28U A41G C93U A115U | ≤ -4.2
C27A U45A C51A C87U C95G U144C | ≤ -4.2
A30C A39C U55G C72A U90A A91G G92A C116A G128U C131A A138C | ≤ -4.2
C27G C87A U101A G140U | ≤ -4.2
A29U A39U C57U A66C G67A G84A A91G C105G U111G | ≤ -4.2
A29U G86U | ≤ -4.2
A29G A41C G42U C72G U101G C114A A120G G140U | ≤ -4.2
A29C A40C C93A A150U | ≤ -4.2
A28C U55A G58A G92A | ≤ -4.2
C27G U44A C87U U101A | ≤ -4.2
A30G C96A U130G | ≤ -4.2
A29G C93U C95G C96U | ≤ -4.2
A29U A52G U55G G65A G67U C96A | ≤ -4.2
A28C C72U G84C | ≤ -4.2
C27G A40C U61C C79U C93U G152A | ≤ -4.2
A30G A47C G50U C87G U139A | ≤ -4.2
A28G C51G C54A G88C C95G C131A | ≤ -4.2
A28U A37C U53G C79A U101G C114G | ≤ -4.2
A30G A52C C93A A113U | ≤ -4.2
C27U G80C C93G U146C G152C | ≤ -4.2
A30G U139A | ≤ -4.2

Variant | polymerase ribozyme fitness (log ratio)
C27G U44A U56G G68U | ≤ -4.2
A28C C57U G58A A60C C87A | ≤ -4.2
A28U C96A A150C | ≤ -4.2
C27U G34U U56G C85A A110G U135G | ≤ -4.2
A28G U77A C95U | ≤ -4.2
A28U A49C C85U | ≤ -4.2
A28C A41C G46C A60C C132G | ≤ -4.2
A28G G68A C75U | ≤ -4.2
A30G A49C C69U G80U C103U A150C | ≤ -4.2
C27U A39C G70C C87A U101G G140C | ≤ -4.2
C27G U53G C87G | ≤ -4.2
A29U U77A U101G U127A G140U | ≤ -4.2
A30G A47C C75U | ≤ -4.2
A30C A64C C116G | ≤ -4.2
A28U A41C A60C A91G | ≤ -4.2
A28C G65U C76G C87A C108A | ≤ -4.2
A29G A41C U55A C57U G59C A64U A119U U144A U151A | ≤ -4.2
A29U U78A C118U | ≤ -4.2
A30G A47C C87U A113G C118G | ≤ -4.2
C27G U53G C96U | ≤ -4.2
A29U U53G G68U | ≤ -4.2
C27U C93A C108G | ≤ -4.2
A28G G84U C118G | ≤ -4.2
A30U A37C G84C A97U G117C A147U | ≤ -4.2

Variant | polymerase ribozyme fitness (log ratio)
A28U C35U C96U U135A G136A G143C | ≤ -4.2
C27G U56G G94A A113C U135C | ≤ -4.2
A28C A40C G67A G80U C96G G128A | ≤ -4.2
C27U A47C C51U G94C C95A U148C | ≤ -4.2
A28G U31G U56G C95U U101G G136A A147G | ≤ -4.2
A29C A39U U61G C76U C85G C105G C125U | ≤ -4.2
A30C U44A A66U C85U A98U C103U | ≤ -4.2
A29U G62U C63A A89U U111G U145A | ≤ -4.2
C27U A39U G42A G70U G92U U101G | ≤ -4.2
A30G G88C A91G C93A C123A G140C | ≤ -4.2
A29C C57A C87U | ≤ -4.2
A29U C54G G86C | ≤ -4.2
A28G C76G C79A C149G | ≤ -4.2
A28G C36U C69G A142U | ≤ -4.2
A29U C76A G117C | ≤ -4.2
A29C G42C G92U U104G U130G G143A | ≤ -4.2
A28C U33C G34C A89U C93U C99U | ≤ -4.2
A29U C75U C95A A107U | ≤ -4.2
A28G A91G G112U | ≤ -4.2
C27G C57U G83A C103U A106G C108U | ≤ -4.2
A28C C57A G86C A110U G128U | ≤ -4.2
A28G A47U A60G C85A C87G C116A G141C | ≤ -4.2
A28C U56C U61G C69A G70A C87G C114A C116U G143U | ≤ -4.2
